Test results from PubChem BioAssay AID686978 (National Center for Advancing Translational Sciences (NCATS), 2013).
Hit rate of the full screen: of about 420,000 compounds, about 64,000 (15%) were called active. Inconclusive means that the source gave no clear call. Such entries were picked first, then a sample of the others. The call rests on the fitted dose curve; in most records, active means well fitted inhibition curve with a large enough effect; inconclusive means small, poorly fitted or top-dose-only effect; inactive means flat fitted curve, though single readings scatter. No potency is given beside an inconclusive call; the fits are too rough.

experiment: qHTS for Inhibitors of human tyrosyl-DNA phosphodiesterase 1 (TDP1): qHTS in cells in absence of CPT; conditions: DT40 Tdp1-/- hTDP1 cells, no CPT, ATP luminescence, 48 h; activity change, negative = growth inhibition: at 46.2 µM (top of the series); further: nearly all actives have a fitted effect of over 55% in size
Procedure, shortened: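 A cellular qHTS used chicken DT40 cells lacking endogenous Tdp1 but carrying stably transfected human TDP1. Compounds were applied without camptothecin, and cell growth kinetics were judged by ATP-dependent luminescence after ≥48 hr.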
On the % scale 0 is the no-effect control and ±100 the full control effect; potency means the concentration at half of the fitted maximal effect; tags describe the fitted curve by direction and shape.

Compound	Potency	activity change, negative = growth inhibition
CCCCN(C(=O)CCC(=O)Nc1cc(C)on1)C(C(=O)NC(C)(C)C)c1cccc(OC)c1OC (stereo unspecified)	inconclusive [inhibitor, partial curve]	–
COc1ccc(-c2cc(C(=O)N3CC(C)CC(C)C3)c3ccccc3n2)cc1 (stereo unspecified)	active: 20.6 µM	–
COc1ccc(OC)c(CC(=O)N2CCc3cc(OC)c(OC)cc3C2)c1	inconclusive [inhibitor, full curve, poor fit]	–
Cn1c(=O)c2c(nc(CN3CCN(C(=O)c4ccco4)CC3)n2CCc2ccccc2)n(C)c1=O	–	inconclusive: -30.6% [inhibitor]
CCCCn1c(-c2ccco2)nc2ccccc2c1=O	active: 16.4 µM	–
Cc1ccc2c(c1)N(C(=O)CCC(=O)N1CCN(c3ccccn3)CC1)CC(C)O2 (stereo unspecified)	inconclusive [inhibitor, partial curve, poor fit]	–
COc1ccc(N2CCN(C(=O)COC(=O)[C@@H](NC(=O)c3ccccc3Cl)C(C)C)CC2)cc1	inconclusive [inhibitor, single point]	–
CC(=O)Nc1ccc(S(=O)(=O)NCC(=O)OCC(=O)c2cc(C)n(-c3ccc4c(c3)OCO4)c2C)cc1	active: 8.2 µM	–
O=S(=O)(c1c(F)cccc1F)N1CCN(C(=S)NCc2ccc3c(c2)OCO3)CC1	inconclusive [inhibitor, single point]	–
Cc1c(C)c2ccc(OCC(=O)Nc3nccs3)cc2oc1=O	inconclusive [inhibitor, partial curve, poor fit]	–
Cc1ccc(-c2nc(NC(=O)CSc3ncn[nH]3)ns2)cc1	inconclusive [inhibitor, single point]	–
COc1ccc(Cl)cc1NC(=O)Cc1coc2c(C)c(C)ccc12	inconclusive [inhibitor, single point]	–
Cc1cccc(CSc2nc(N)c(C#N)c(-c3cccs3)c2C#N)c1	inconclusive [inhibitor, single point]	–
O=C(c1cc(-c2ccccc2)on1)N1CCc2ccccc2C1	inconclusive [inhibitor, partial curve, poor fit]	–
Cc1cccc(COc2ccccc2C(=O)NC2CCC(O)CC2)c1 (stereo unspecified)	inconclusive [inhibitor, single point]	–
Cc1ccc(/C=N/Nc2nc(N3CCCCC3)nc(N3CCCCC3)n2)o1	inconclusive [inhibitor, single point]	–
O=C(NC(=S)N1CCCCC1)c1csc([N+](=O)[O-])c1	inconclusive [inhibitor, single point]	–
C=Cc1ccc(C2=CC(=O)C[C@H](c3ccc(OC)cc3)C2)cc1	inconclusive [inhibitor, single point]	–
Cc1ccc(S(=O)(=O)N2CCCC(C(=O)NC3CCCC3)C2)cc1Cl (stereo unspecified)	inconclusive [inhibitor, partial curve, poor fit]	–
NC(=O)c1ccccc1Nc1nc2nc3ccccc3c(=O)n2cc1Br	inconclusive [inhibitor, partial curve]	–
NNC(=O)CCN1CCN(C(c2ccccc2)c2ccccc2)CC1	inconclusive [inhibitor, single point]	–

Compound	Potency	activity change, negative = growth inhibition
CCc1ccc2[nH]c(=O)c(CN(CC3CCCO3)C(=S)NCc3ccco3)cc2c1 (stereo unspecified)	inconclusive [inhibitor, single point]	–
c1ccc(COc2ccc(Nc3ncnc4nc[nH]c34)cc2)cc1	inconclusive [inhibitor, single point]	–
Cc1cnc(C(=O)N2CCCC(N3CCN(c4ccccc4F)CC3)C2)cn1 (stereo unspecified)	–	inactive: -24.2%
CCC(C)(C)n1nnnc1C(c1ccc(O)c(OC)c1)N1CCN(c2nc3ccccc3s2)CC1 (stereo unspecified)	active: 16.4 µM	–
N/C(=N\N=C\c1cccs1)SC1CC(=O)N(c2ccc(Br)cc2)C1=O (stereo unspecified)	inconclusive [inhibitor, single point]	–
COc1ccccc1C(=O)NC(=S)Nc1ccc(N2CCOCC2)cc1	active: 0.206 µM	–
O=C(Nc1cccc2ccccc12)N1CCN(Cc2ccccc2)CC1	–	inactive: -11.8%
CCOc1cc(CN2CCN(S(=O)(=O)Cc3ccccc3)CC2)ccc1OC	active: 23.1 µM	–
CSc1nnc(C)c(/C=C/NOCc2cccc(F)c2)n1	inconclusive [inhibitor, single point]	–
Cc1cccc(C)c1-n1nnnc1C1(Nc2ccccc2)CCCCC1	inconclusive [inhibitor, single point]	–
Brc1ccc2ncnc(Nc3cccc4ccccc34)c2c1	inconclusive [inhibitor, partial curve]	–
CSC[C@H]1CN(c2ccc(Br)cc2)C(=O)[C@@H]1CC(=O)Nc1ccccc1	inconclusive [inhibitor, single point]	–
COc1ccc(NC(=O)CC23CC4CC(CC(Br)(C4)C2)C3)c(OC)c1	–	inactive: -1.62%
CCN(Cc1nc2cc(Cl)ccc2c(=O)[nH]1)C(=O)C1CC(=O)N(c2cccc3ccccc23)C1 (stereo unspecified)	inconclusive [inhibitor, single point]	–
O=C(NC1CC1)C1=C[C@H](c2ccccc2)C[C@H](OCc2ccc(CO)cc2)O1	inconclusive [inhibitor, partial curve, poor fit]	–
CC(C)(C)c1ccc(S(=O)(=O)NC(=O)C2(C)CCN2C(=O)C2(c3ccc(Cl)cc3)CC2)cc1 (stereo unspecified)	–	inactive: -26.1%
Cc1ccc(NC(=O)COC(=O)CNC(=O)c2cccs2)cc1S(=O)(=O)N1CCOCC1	–	inactive: 15.1%
CCC(CC)C(=O)Nc1nc(-c2ccc3c(c2)CCN3C(=O)C2CC2)c(C)s1	active: 23.1 µM	–
C=CCOc1ccc(C2NC(=S)NC(C)=C2C(=O)c2ccccc2)cc1OC (stereo unspecified)	inconclusive [inhibitor, single point]	–
CN(C)CCNc1ncnc2oc(-c3ccccc3)c(-c3ccccc3)c12	inconclusive [inhibitor, single point]	–
